From the RNAGym collection of RNA variant scans (doi:10.7554/elife.90254)
The source gives no read counts; variants with many changes may rest on few reads.

B1: OR4K15 (parent)
chain: GUUAACGGUCAUAGGCCAUGGAAACUAGGAGCACCAUUUCGCUGCCAGUGAAGAAAUGAACAAAGAAAAUCUGGGCCAGGCAGGCAUCAAAAGAAAUAGUCUUGCGCUCAACCAGAAAGUCUGUAAUCAUUUUAAGGGUA

Variants of: B1
Test: self-cleavage, relative activity (ratio to wild type); higher = more cleavage; in vitro, sequencing; the parent is a self-cleaving ribozyme
A54G A60U A91G showed a self-cleavage of 0.61. Work on G53U A64C A86G A92G yielded a self-cleavage of 1.28. Work on A52G U70C A86C A92G A118G U131C yielded a self-cleavage of 0.05. For A54C A92G A94G, the self-cleavage was 1.69. With A52G G80U A95G the self-cleavage was 0.08. A54G A56G A82G U127C gave a self-cleavage of 0.44. Work on A52U A64G U102A yielded a self-cleavage of 1.08. Variant A52U A92G U120C has a self-cleavage of 1.25. With A52G G73A A95U the self-cleavage was 0.2. With A52G A59G A63G G123C the self-cleavage was 0.4. A52G U87C A111G A126G showed a self-cleavage of 0. With A54G A55G A78G the self-cleavage was 0.17. A52G A86G G137A gave a self-cleavage of 1.44. In the case of A52U A59G U122C, the self-cleavage is reported as 0.75. A54G A62G C81U showed a self-cleavage of 0.25. Work on A52U A62C A90U A92G A111G yielded a self-cleavage of 0.04. A52G A118G A134U gave a self-cleavage of 1.86. A52G U120A A135G gave a self-cleavage of 0.66. Work on A52G A86G A89G U100C U108C yielded a self-cleavage of 0.01. Work on A52U A67G A98G yielded a self-cleavage of 0.31. In the case of A52G A60G A82G U97G, the self-cleavage is reported as 0.64. Variant A52G A55G U120C has a self-cleavage of 1.02. A54G A60G U87C U139A showed a self-cleavage of 0.75. In the case of A52U A60G A116U, the self-cleavage is reported as 0.45. A52G A56G A63G showed a self-cleavage of 0.99. A52G A64G A68G showed a self-cleavage of 0.89. For A52U A92G U100C, the self-cleavage was 2.31. Variant A52G A69G U87C has a self-cleavage of 1.79. Work on A54G A55U A78U yielded a self-cleavage of 0.25. A52G A56G A78U A86G U120C showed a self-cleavage of 0.11. With A52G A55G U72A the self-cleavage was 0.47. With A52G A63U A91G the self-cleavage was 0.96. Variant A52G A98G A114G has a self-cleavage of 0.2. A52G U131C U133A gave a self-cleavage of 2.14. With A52G A82U A91C the self-cleavage was 0.06. A52G A56G A129C showed a self-cleavage of 0.78. In the case of A52U A96G U120C, the self-cleavage is reported as 1.46. Variant A52G U122C U131A has a self-cleavage of 0.73. For A52G U127G U130C, the self-cleavage was 0.98. For A52G A62U A94G, the self-cleavage was 1.81. Variant A54G A62U G123A has a self-cleavage of 2.25. In the case of A52G U100A U127C, the self-cleavage is reported as 0.4. Work on A54G A55G U72A G138A yielded a self-cleavage of 0.24. In the case of A52G U72C G73U A78U, the self-cleavage is reported as 0.13. In the case of A52G A90G A92G, the self-cleavage is reported as 0.89. With A52U A62U A69G G73U A90G U120C U122C the self-cleavage was 0.03. A52G A86G A92G gave a self-cleavage of 0.49. A52U A92G U97C U108C U122C showed a self-cleavage of 0. A54G A62U A126G gave a self-cleavage of 0.76. A54G A56G A68C U100C gave a self-cleavage of 2.39. Variant A54G A66G A114U has a self-cleavage of 0.15. In the case of A52G A55G A67G, the self-cleavage is reported as 1.08. A52U A90G A126G U131C gave a self-cleavage of 0.78. With A52G A68G A82G A90G A110G U127C the self-cleavage was 0.01. With A52G A54U A69G A125C the self-cleavage was 0.59. With A52U A63G A64G U122A the self-cleavage was 1.02. A52G A67G U70C U127C gave a self-cleavage of 0.22. With A52G A56G A68U U108C the self-cleavage was 0.06. Work on A52G A56G G73A A114U yielded a self-cleavage of 0.04. Work on A54G A67G U108C A110U yielded a self-cleavage of 0. Variant A54G A60G A116U has a self-cleavage of 0.14. A54G A64G G75A U102C C112U A118G gave a self-cleavage of 0.01. In the case of A52G A68G A69U U70C U102C, the self-cleavage is reported as 0.35. G53A A90U U127A gave a self-cleavage of 1. With A52G A60G A118U A135G the self-cleavage was 0.43. In the case of A52G A90G A95G C112U, the self-cleavage is reported as 0.03. In the case of A52G A66G A86G, the self-cleavage is reported as 1.21. A54G A56G A60G showed a self-cleavage of 1.25. Variant A52U A117C A118G has a self-cleavage of 0.22. A52G A55G U57C A59G U120C U122C showed a self-cleavage of 0.97. Work on A54G A60G A63G U132C yielded a self-cleavage of 0.97. With A54C U87C A94G C121A the self-cleavage was 0.45. For A54G A55G A89G C113A U120C, the self-cleavage was 0.02. A52G A91G A92G A116G A125G A126G gave a self-cleavage of 0.08. A52G A54U A94G showed a self-cleavage of 0.24. In the case of A52G A89G A92G A111U, the self-cleavage is reported as 0.03. A54G A60G U103C A118G showed a self-cleavage of 0.21. A52U U72A U122C showed a self-cleavage of 0.11. A54G A66G A95G showed a self-cleavage of 2.27. For A52G U100C A117U A135G, the self-cleavage was 0.82. With A54G A56G A96G the self-cleavage was 1.68. Work on A52G A62U A91U A92G yielded a self-cleavage of 1.99. For A52G A59G U72C A86G, the self-cleavage was 0.23. For A52G A64G A69G A78G U87C A95G, the self-cleavage was 0.19.
